These results are taken from the supplement of paper PMC11417369.

± gives the standard deviation of the averaged measurements. Some of the results follow.

In the assay the test system is PfAP2-LT AP2 domain (GST-tagged). The assay is described as follows: gcPBM binding intensity (ln(normalized median fluorescence intensity)); higher = stronger DNA binding. In a few lines: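 GST-tagged P. falciparum DNA-binding domains, expressed in E. coli (about 25 μg on average), were applied for 1 h to an Agilent 4 × 180k array of primer-extended double-stranded 36-bp intergenic genomic probes plus negative controls. The binding buffer was 1× PBS with 1% milk, 0.2 mg/ml BSA, 0.5% salmon testes DNA and 0.03% Triton X-100. Bound protein was detected with Alexa488 anti-GST antibody and scanned at 488 nm. Binding intensity is the highest Masliner-normalised natural-log median intensity across replicate spots of either probe orientation.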
Turning to “GTATTATCTTTTAATAGTACATATTTTTTTGAAACA [XGTACX_site4050]”, the “gcPBM binding intensity (ln)” value is 8.32 ± 0.45.

With “AATATATTTTTATATTGTACAAAAGAAAAAAAATAT [XGTACX_site1689]”, the “gcPBM binding intensity (ln)” value is 8.58 ± 0.52.

As for “CATATAATATTTGAAACTATATATAAATATAAGGTA [TGCATGCA_negctrl_site19]”, the “gcPBM binding intensity (ln)” value stood at 8.63 ± 0.45.

Regarding “GAACTTTACAACCCAACACACAAAAAAGAAAAGAAA [CACACA_site1717]”, the “gcPBM binding intensity (ln)” value worked out at 9.02 ± 0.49.

As to “ATTGGTGTATGTTTATGTACTTATCACAATTATGAA [XGTACX_site7055]”, the “gcPBM binding intensity (ln)” value was determined as 8.86 ± 0.49.

In the case of “ATATGTTCATTTAAAAGTACTTAATATAACATTTTT [XGTACX_site3332]”, the “gcPBM binding intensity (ln)” value is 8.55 ± 0.35.

In the case of “AATAGGAAAAGAAAAGCACACACATAAATAAATATA [CACACA_site8062]”, the “gcPBM binding intensity (ln)” value came out at 9.38 ± 0.36.

With “AAACATTTACTATATTGTACTTAAGATCTTATCGTA [XGTACX_site3919]”, the “gcPBM binding intensity (ln)” value amounted to 8.82 ± 0.41.

“TAATATGACATAAGGGGTACTATATATATATATATT [XGTACX_site386]”: the “gcPBM binding intensity (ln)” value was determined as 9.1 ± 0.3.

Regarding “GTTTTATAAAAAGGCGCACACATATACATAAATATA [CACACA_site1864]”, the “gcPBM binding intensity (ln)” value is 9.37 ± 0.47.

For the sequence “TAAATACAAAAATGCACACGAAAAGTAATATATATA [CACACA_site6151]”, the “gcPBM binding intensity (ln)” value came out at 9.28 ± 0.4.

As for “AAAAAGAAAATATATACACACCAAAAAAAAAAAAAA [CACACA_site5698]”, the “gcPBM binding intensity (ln)” value worked out at 8.94 ± 0.46.

For the sequence “GATAAAGTACTTTATACACACAAATATTTATATATA [CACACA_site3974]”, the “gcPBM binding intensity (ln)” value was 8.99 ± 0.47.

“TCAAATTACTAAAATACACACATATTATAGATATAT [CACACA_site7233]”: the “gcPBM binding intensity (ln)” value came out at 8.85 ± 0.41.

Regarding “TGTATATATAATAAAACACACATTTTTAATGTGCTC [CACACA_site1437]”, the “gcPBM binding intensity (ln)” value was found to be 8.78 ± 0.46.

Turning to “AAACGATTAATGTGTACACACATAGTTATAAACATA [CACACA_site7073]”, the “gcPBM binding intensity (ln)” value was found to be 9.28 ± 0.38.

Consider TTACACATGTATTTGGTGCATGTTGTTAACAAAATA, for which the “gcPBM binding intensity (ln)” value turned out to be 8.64 ± 0.38.

As for “TTAACATACACTCTAGTGCATATATATAACAAAATA [GTGCAC_site9724]”, the “gcPBM binding intensity (ln)” value came out at 8.7 ± 0.37.

On to “ATTAAAACACAATATTCACACATGTATATTATATAT [CACACA_site5191]”, for which the “gcPBM binding intensity (ln)” value is 8.93 ± 0.46.

As for “AATTTAAATCTTCAAAGTACTAAAAAAAAAAATAAT [XGTACX_site8566]”, the “gcPBM binding intensity (ln)” value is 8.36 ± 0.48.

Consider “ATCATATTTATATTGGTGCATTATGCATGAAATTTA [GTGCAC_site9571]”, for which the “gcPBM binding intensity (ln)” value came to 8.64 ± 0.33.

As for “ATATAAATTTAATACACACCCAAAAAAAAAAAAAAA [CACACA_site3750]”, the “gcPBM binding intensity (ln)” value turned out to be 8.7 ± 0.52.

For “ATAATAAGCAGACACACACACACAAAAAAAAAAAAA [CACACA_site6477]”, the “gcPBM binding intensity (ln)” value amounted to 9.69 ± 0.47.

“TAAATAAATACATACACACACATACAGATATATATA [CACACA_site5690]”: the “gcPBM binding intensity (ln)” value was 9.62 ± 0.26.

For the sequence “CGCCCACAGATATATACACACATATATAAATAAATA [CACACA_site6877]”, the “gcPBM binding intensity (ln)” value was determined as 9.04 ± 0.33.

As for “TATGCTTTGATGAAGACACACATATAGAAGCGTATT [CACACA_site1925]”, the “gcPBM binding intensity (ln)” value came out at 8.84 ± 0.3.

Consider “AAAACTATTTCTTTCAGTACATATTTGGACTTATAT [XGTACX_site4977]”, for which the “gcPBM binding intensity (ln)” value was 8.63 ± 0.4.

For the sequence “TATGTTATAAAATATATATTATAATATGTATATATA [XGTACX_negctrl_site233]”, the “gcPBM binding intensity (ln)” value worked out at 8.38 ± 0.46.

On to “TACTTTTATAAAAATTGTACAAAAAAAAAAAAAAAA [XGTACX_site2266]”, for which the “gcPBM binding intensity (ln)” value came to 8.29 ± 0.3.

With “TTTTTTTTTTTTTTATGTACTAAAAAATGAAAAATA [XGTACX_site6812]”, the “gcPBM binding intensity (ln)” value amounted to 8.02 ± 0.3.

With “AAATACTTAACATTGGTGCATATTTGTAAAATTATT [GTGCAC_site9515]”, the “gcPBM binding intensity (ln)” value came to 8.77 ± 0.49.

With “ATGCAATAATAATATTGTACGCATATATTTTTTACT [XGTACX_site3384]”, the “gcPBM binding intensity (ln)” value was 8.72 ± 0.35.

“AGAATACAAAATTGCACACATATTGTGAAAATGTTA [CACACA_site4005]”: the “gcPBM binding intensity (ln)” value was determined as 9.19 ± 0.47.

For “TTTTGGCTTCTAATATTATACAAAATGGTAAGGAAA [TGCATGCA_negctrl_site169]”, the “gcPBM binding intensity (ln)” value came to 8.21 ± 0.29.

Consider TTATTTATTTATTGGGTGCACTTGATTTAAATATGC, for which the “gcPBM binding intensity (ln)” value is 8.85 ± 0.47.

On to “AAAAAAAAAAAAAAAACACACACATATATATAATAT [CACACA_site9038]”, for which the “gcPBM binding intensity (ln)” value came to 9.3 ± 0.41.

For the sequence “AATACATCATTAAAATGTACATATATATATACATTA [XGTACX_site132]”, the “gcPBM binding intensity (ln)” value is 8.68 ± 0.43.

“ATTATAATAATGTGATGTACATTAATTGTCTTCCTA [XGTACX_site5404]”: the “gcPBM binding intensity (ln)” value amounted to 8.86 ± 0.45.

With “ATATATATTAATTTTGTGCACAAATGGAAATGTTTG [GTGCAC_site9971]”, the “gcPBM binding intensity (ln)” value is 8.8 ± 0.36.

For “GAAATAAGGGTTATTTCACACATTGCATGTATTTTC [CACACA_site5752]”, the “gcPBM binding intensity (ln)” value is 9.05 ± 0.28.

With “TTTTTTAAATGTCATTGTACATAATTCAATATATAA [XGTACX_site5]”, the “gcPBM binding intensity (ln)” value turned out to be 8.29 ± 0.32.

In the case of “AGCTAATATATCTTATATTCATATAAAAAAATATAT [CACACA_negctrl_site1786]”, the “gcPBM binding intensity (ln)” value was found to be 8.46 ± 0.36.

Consider “TGACTTTTTTTATGTTGTACTTATTATAAAAAAAAT [XGTACX_site7736]”, for which the “gcPBM binding intensity (ln)” value came to 8.33 ± 0.35.

In the case of “TTATAAAATATTTTTTGTACACATAATAGTAAGACT [XGTACX_site933]”, the “gcPBM binding intensity (ln)” value was determined as 8.48 ± 0.45.

As to “AACCATGTTAACAACGCATGTATATCTATGGGTTTA [TGCATGCA_site419]”, the “gcPBM binding intensity (ln)” value amounted to 8.81 ± 0.42.

Turning to “CTTATATTTAGACACACACACAATAAAATGAAAAAA [CACACA_site1031]”, the “gcPBM binding intensity (ln)” value was determined as 9.46 ± 0.39.

For “GATTAATACACATTCTTCCGACATAATAAGAAAAAG [GTGCAC_negctrl_site7]”, the “gcPBM binding intensity (ln)” value was 8.7 ± 0.42.

“GATTATTTTATAAGTACACACATTTATCTATAATAA [CACACA_site7256]”: the “gcPBM binding intensity (ln)” value stood at 8.77 ± 0.41.

Regarding “AATACATGCTTATTTTAACACACAAATGGTAGTAAT [CACACA_site8154]”, the “gcPBM binding intensity (ln)” value stood at 8.91 ± 0.36.

On to “CACCCACACCAACACACACACATATATAATATATAT [CACACA_site595]”, for which the “gcPBM binding intensity (ln)” value is 9.88 ± 0.33.

As to “CCATAATATTATAGACGTACGAATATATATAAAAGA [XGTACX_site7295]”, the “gcPBM binding intensity (ln)” value was found to be 9.03 ± 0.49.

On to “TATAGATAACAAAAGTGTACATGTTGTATACACATG [XGTACX_site3471]”, for which the “gcPBM binding intensity (ln)” value was determined as 8.82 ± 0.41.

On to “TATATATATAAACACACACACACACCCAAGCGTAGC [CACACA_site4210]”, for which the “gcPBM binding intensity (ln)” value is 10.07 ± 0.057.

On to “AACAACTATTACTGCACACATTCTTACACTATATAA [CACACA_site654]”, for which the “gcPBM binding intensity (ln)” value is 9.28 ± 0.35.

As to “TGTACAAATTATACTTCGAACGAAGGGCATACATAT [XGTACX_negctrl_site37]”, the “gcPBM binding intensity (ln)” value amounted to 9.04 ± 0.4.

On to “TATTTGTGTATTTTTACACACATTAATATATTTATA [CACACA_site7562]”, for which the “gcPBM binding intensity (ln)” value stood at 8.84 ± 0.39.

As to “TATATATATATTATATGTACACATTTGTGAATTATT [XGTACX_site5848]”, the “gcPBM binding intensity (ln)” value was 8.72 ± 0.3.
